According to patent publication US20210054071A1 (NANJING LEGEND BIOTECH, published 2021):
Like-named read-outs stand apart in the source and are kept apart here.

T1: mouse TIGIT-His protein (Acrobiosystems) (mouse, UniProt P86176 29-148, limits assumed)
T1 construct: bought
T1 sequence (looked up): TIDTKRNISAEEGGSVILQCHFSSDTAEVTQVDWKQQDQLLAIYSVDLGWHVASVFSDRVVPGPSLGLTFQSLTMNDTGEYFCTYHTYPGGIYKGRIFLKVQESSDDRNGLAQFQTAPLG


Columns and labels:
[1] = molecular target: T2, PD-L1 expressed on cells (UniProt Q9NZQ7); experiment: FACS, CHO-PD-L1 cells
T2 construct: whole, on cells; also called CHO-PD-L1 cells; PD-L1 Target cells (GS-C2/PD-L1)

[2] = molecular target: T2, PD-L1 expressed on cells; experiment: cell-based or functional assay
[3] = molecular target: T3, human PD-L1 (Acrobiosystems) (human, UniProt Q9NZQ7 partial chain); experiment: SPR as in Example 2
T3 construct: bought

[4] = molecular target: T1, mouse TIGIT-His protein (Acrobiosystems); experiment: SPR as in Example 2
[5] = molecular target: T2, PD-L1 expressed on cells; experiment: FACS competition, PD-1 binding to CHO-PD-L1 cells
[6] = molecular target: T2, PD-L1 expressed on cells; experiment: cell-based or functional assay; remark: listed apart in the source
[7] = molecular target: T2, PD-L1 expressed on cells; experiment: FACS, CHO-PD-L1 cells; remark: listed apart in the source
[8] = molecular target: T2, PD-L1 expressed on cells; experiment: FACS competition, PD-1 binding to CHO-PD-L1 cells; remark: listed apart in the source
[9] = molecular target: T3, human PD-L1 (Acrobiosystems); experiment: SPR as in Example 2; remark: listed apart in the source
[10] = molecular target: T2, PD-L1 expressed on cells; experiment: cell-based or functional assay; remark: listed apart in the source
[11] = molecular target: T1, mouse TIGIT-His protein (Acrobiosystems); experiment: SPR as in Example 2; remark: listed apart in the source

T2 sequence (Q9NZQ7 19-290 limits assumed): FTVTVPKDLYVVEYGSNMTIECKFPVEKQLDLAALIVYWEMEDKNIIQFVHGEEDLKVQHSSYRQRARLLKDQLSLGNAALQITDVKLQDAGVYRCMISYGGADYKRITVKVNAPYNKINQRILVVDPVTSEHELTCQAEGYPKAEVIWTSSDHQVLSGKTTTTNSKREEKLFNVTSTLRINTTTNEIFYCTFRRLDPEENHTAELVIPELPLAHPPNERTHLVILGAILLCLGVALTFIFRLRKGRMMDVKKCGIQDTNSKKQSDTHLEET
T3 sequence (Q9NZQ7 19-238 limits assumed): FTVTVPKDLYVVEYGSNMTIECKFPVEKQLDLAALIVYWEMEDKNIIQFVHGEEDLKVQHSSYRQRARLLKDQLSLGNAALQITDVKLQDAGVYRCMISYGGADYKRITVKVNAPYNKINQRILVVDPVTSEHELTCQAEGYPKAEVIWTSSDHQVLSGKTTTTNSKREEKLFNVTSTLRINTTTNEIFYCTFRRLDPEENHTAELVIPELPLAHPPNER

| Binder | EC50 [1] | PD-L1 cell-based assay EC50 [2] | Kd [3] | Kd [4] | EC50 [5] | PD-L1 cell based assay EC50 [6] | EC50 [7] | EC50 [8] | Kd [9] | PD-L1/TIGIT bifunctional reporter assay: EC50 [10] | Kd [11] |
| --- | --- | --- | --- | --- | --- | --- | --- | --- | --- | --- | --- |
| BTP-4 (bispecific antibody, human IgG1, kappa, AS19584 - mutated hIgG1 hinge - h53C1 (inert IgG1) heavy chain, with the h53C1 light chain; also called BTP-4 (h53C1 inert IgG1); POC PD-L1×TIGIT BABP) heavy: QVQLAESGGGSVQAGGSLRLSCAASGYKYGVYSMGWFRLAPGKEREGVAAICSGGRTTYSDSVKGRFTISKDSANQILYLQMNSLKPEDTAMYYCAARPLWTGDCDLSSSWYKTWGQGTQVTVSSEPKSSDKTHTSPPSPEVQLVQSGAEVKKPGASVKVSCKASGYIFTGYGITWVRQAPGQGLEWMGEIFPRRVQTYYSEKFKGRVTMTTDTSTSTAYMELRSLRSDDTAVYYCARDYDPYFALDYWGQGTTVTVSSASTKGPSVFPLAPSSKSTSGGTAALGCLVKDYFPEPVTVSWNSGALTSGVHTFPAVLQSSGLYSLSSVVTVPSSSLGTQTYICNVNHKPSNTKVDKKV[human IgG1 Fc with changes not written out] light: DIQMTQSPSSLSASVGDRVTITCRASQDVSTAVDWYQQKPGKAPKLLIYSASYRYTGVPDRFSGSGSGTDFTFTISSLQPEDIATYYCQQHYSIPFTFGQGTKLEIKRTVAAPSVFIFPPSDEQLKSGTASVVCLLNNFYPREAKVQWKVDNALQSGNSQESVTEQDSKDSTYSLSSTLTLSKADYEKHKVYACEVTHQGLSSPVTKSFNRGEC | 0.627 nM | 1.79 nM | 0.51 nM | 0.56 nM | 0.469 nM | – | – | – | – | – | – |
| BTP-5 (bispecific antibody, human IgG1, kappa, AS19584 - mutated hIgG1 hinge - h53C1 (IgG1) heavy chain, with the h53C1 light chain; also called BTP-5 (h53C1 IgG1); POC PD-L1×TIGIT BABP) heavy: QVQLAESGGGSVQAGGSLRLSCAASGYKYGVYSMGWFRLAPGKEREGVAAICSGGRTTYSDSVKGRFTISKDSANQILYLQMNSLKPEDTAMYYCAARPLWTGDCDLSSSWYKTWGQGTQVTVSSEPKSSDKTHTSPPSPEVQLVQSGAEVKKPGASVKVSCKASGYIFTGYGITWVRQAPGQGLEWMGEIFPRRVQTYYSEKFKGRVTMTTDTSTSTAYMELRSLRSDDTAVYYCARDYDPYFALDYWGQGTTVTVSS[human IgG1 constant region not written out] light: DIQMTQSPSSLSASVGDRVTITCRASQDVSTAVDWYQQKPGKAPKLLIYSASYRYTGVPDRFSGSGSGTDFTFTISSLQPEDIATYYCQQHYSIPFTFGQGTKLEIKRTVAAPSVFIFPPSDEQLKSGTASVVCLLNNFYPREAKVQWKVDNALQSGNSQESVTEQDSKDSTYSLSSTLTLSKADYEKHKVYACEVTHQGLSSPVTKSFNRGEC | 0.636 nM | 1.97 nM | 0.49 nM | 0.59 nM | 0.468 nM | – | – | – | – | – | – |
| h53C1 (IgG1) mAb (antibody, also called h53C1 (IgG1) (anti-PD-L1); humanized 53C1) heavy: EVQLVQSGAEVKKPGASVKVSCKASGYIFTGYGITWVRQAPGQGLEWMGEIFPRRVQTYYSEKFKGRVTMTTDTSTSTAYMELRSLRSDDTAVYYCARDYDPYFALDYWGQGTTVTVSS[human IgG1 constant region not written out] light: DIQMTQSPSSLSASVGDRVTITCRASQDVSTAVDWYQQKPGKAPKLLIYSASYRYTGVPDRFSGSGSGTDFTFTISSLQPEDIATYYCQQHYSIPFTFGQGTKLEIKRTVAAPSVFIFPPSDEQLKSGTASVVCLLNNFYPREAKVQWKVDNALQSGNSQESVTEQDSKDSTYSLSSTLTLSKADYEKHKVYACEVTHQGLSSPVTKSFNRGEC | 0.466 nM | 1.87 nM | 0.5 nM | – | 0.432 nM | 4.02 nM | 1.25 nM | 0.636 nM | 0.35 nM | – | – |
| h53C1 (inert IgG1) mAb (antibody, in-house anti-PD-L1 antibody with effectorless human IgG1 Fc) heavy: EVQLVQSGAEVKKPGASVKVSCKASGYIFTGYGITWVRQAPGQGLEWMGEIFPRRVQTYYSEKFKGRVTMTTDTSTSTAYMELRSLRSDDTAVYYCARDYDPYFALDYWGQGTTVTVSSASTKGPSVFPLAPSSKSTSGGTAALGCLVKDYFPEPVTVSWNSGALTSGVHTFPAVLQSSGLYSLSSVVTVPSSSLGTQTYICNVNHKPSNTKVDKKV[human IgG1 Fc with changes not written out] light: DIQMTQSPSSLSASVGDRVTITCRASQDVSTAVDWYQQKPGKAPKLLIYSASYRYTGVPDRFSGSGSGTDFTFTISSLQPEDIATYYCQQHYSIPFTFGQGTKLEIKRTVAAPSVFIFPPSDEQLKSGTASVVCLLNNFYPREAKVQWKVDNALQSGNSQESVTEQDSKDSTYSLSSTLTLSKADYEKHKVYACEVTHQGLSSPVTKSFNRGEC | 0.451 nM | 1.81 nM | 0.41 nM | – | 0.339 nM | 6.88 nM | 2.01 nM | 1.97 nM | 0.44 nM | 2.76 nM | – |
| BTP-15 (bispecific antibody, human IgG1, kappa, AS19584VH28 - mutated hIgG1 hinge - h53C1 (IgG1) heavy chain; also called BTP-15 (IgG1); PD-L1×TIGIT BABP) heavy: EVQLVESGGGLVQPGGSLRLSCAASGYKYGVYSMGWFRQAPGKGLEGVSAICSGGRTTYSDSVKGRFTISRDNSNQILYLQMNSLRAEDTAVYYCAARPLWTGDCDLSSSWYKTWGQGTLVTVSSEPKSSDKTHTSPPSPEVQLVQSGAEVKKPGASVKVSCKASGYIFTGYGITWVRQAPGQGLEWMGEIFPRRVQTYYSEKFKGRVTMTTDTSTSTAYMELRSLRSDDTAVYYCARDYDPYFALDYWGQGTTVTVSS[human IgG1 constant region not written out] light: DIQMTQSPSSLSASVGDRVTITCRASQDVSTAVDWYQQKPGKAPKLLIYSASYRYTGVPDRFSGSGSGTDFTFTISSLQPEDIATYYCQQHYSIPFTFGQGTKLEIKRTVAAPSVFIFPPSDEQLKSGTASVVCLLNNFYPREAKVQWKVDNALQSGNSQESVTEQDSKDSTYSLSSTLTLSKADYEKHKVYACEVTHQGLSSPVTKSFNRGEC | – | – | – | – | – | 8.11 nM | 3.53 nM | 1.83 nM | 0.54 nM | – | 0.75 nM |
| BTP-21 (bispecific antibody, human IgG1, kappa, AS19584VH28 - mutated hIgG1 hinge - h53C1 (inert IgG1) heavy chain; also called BTP-21 (inert IgG1); PD-L1×TIGIT BABP) heavy: EVQLVESGGGLVQPGGSLRLSCAASGYKYGVYSMGWFRQAPGKGLEGVSAICSGGRTTYSDSVKGRFTISRDNSNQILYLQMNSLRAEDTAVYYCAARPLWTGDCDLSSSWYKTWGQGTLVTVSSEPKSSDKTHTSPPSPEVQLVQSGAEVKKPGASVKVSCKASGYIFTGYGITWVRQAPGQGLEWMGEIFPRRVQTYYSEKFKGRVTMTTDTSTSTAYMELRSLRSDDTAVYYCARDYDPYFALDYWGQGTTVTVSSASTKGPSVFPLAPSSKSTSGGTAALGCLVKDYFPEPVTVSWNSGALTSGVHTFPAVLQSSGLYSLSSVVTVPSSSLGTQTYICNVNHKPSNTKVDKKV[human IgG1 Fc with changes not written out] light: DIQMTQSPSSLSASVGDRVTITCRASQDVSTAVDWYQQKPGKAPKLLIYSASYRYTGVPDRFSGSGSGTDFTFTISSLQPEDIATYYCQQHYSIPFTFGQGTKLEIKRTVAAPSVFIFPPSDEQLKSGTASVVCLLNNFYPREAKVQWKVDNALQSGNSQESVTEQDSKDSTYSLSSTLTLSKADYEKHKVYACEVTHQGLSSPVTKSFNRGEC | – | – | – | – | – | 5.04 nM | 3.36 nM | 3.66 nM | 0.5 nM | – | 0.79 nM |
| BTP-17 (bispecific antibody, human IgG1, kappa, AS19584VH28 - mutated hIgG1 hinge - h53C1 light chain; h53C1 (IgG1) heavy chain; also called BTP-17 (IgG1); PD-L1×TIGIT BABP) heavy: EVQLVQSGAEVKKPGASVKVSCKASGYIFTGYGITWVRQAPGQGLEWMGEIFPRRVQTYYSEKFKGRVTMTTDTSTSTAYMELRSLRSDDTAVYYCARDYDPYFALDYWGQGTTVTVSS[human IgG1 constant region not written out] light: EVQLVESGGGLVQPGGSLRLSCAASGYKYGVYSMGWFRQAPGKGLEGVSAICSGGRTTYSDSVKGRFTISRDNSNQILYLQMNSLRAEDTAVYYCAARPLWTGDCDLSSSWYKTWGQGTLVTVSSEPKSSDKTHTSPPSPDIQMTQSPSSLSASVGDRVTITCRASQDVSTAVDWYQQKPGKAPKLLIYSASYRYTGVPDRFSGSGSGTDFTFTISSLQPEDIATYYCQQHYSIPFTFGQGTKLEIKRTVAAPSVFIFPPSDEQLKSGTASVVCLLNNFYPREAKVQWKVDNALQSGNSQESVTEQDSKDSTYSLSSTLTLSKADYEKHKVYACEVTHQGLSSPVTKSFNRGEC | – | – | – | – | – | 3.84 nM | 3.56 nM | 2.35 nM | 0.65 nM | – | 0.81 nM |
| BTP-22 (bispecific antibody, human IgG1, kappa, AS19584VH28 - mutated hIgG1 hinge - h53C1 light chain; h53C1 (inert IgG1) heavy chain; also called BTP-22 (inert IgG1); PD-L1×TIGIT BABP) heavy: EVQLVQSGAEVKKPGASVKVSCKASGYIFTGYGITWVRQAPGQGLEWMGEIFPRRVQTYYSEKFKGRVTMTTDTSTSTAYMELRSLRSDDTAVYYCARDYDPYFALDYWGQGTTVTVSSASTKGPSVFPLAPSSKSTSGGTAALGCLVKDYFPEPVTVSWNSGALTSGVHTFPAVLQSSGLYSLSSVVTVPSSSLGTQTYICNVNHKPSNTKVDKKV[human IgG1 Fc with changes not written out] light: EVQLVESGGGLVQPGGSLRLSCAASGYKYGVYSMGWFRQAPGKGLEGVSAICSGGRTTYSDSVKGRFTISRDNSNQILYLQMNSLRAEDTAVYYCAARPLWTGDCDLSSSWYKTWGQGTLVTVSSEPKSSDKTHTSPPSPDIQMTQSPSSLSASVGDRVTITCRASQDVSTAVDWYQQKPGKAPKLLIYSASYRYTGVPDRFSGSGSGTDFTFTISSLQPEDIATYYCQQHYSIPFTFGQGTKLEIKRTVAAPSVFIFPPSDEQLKSGTASVVCLLNNFYPREAKVQWKVDNALQSGNSQESVTEQDSKDSTYSLSSTLTLSKADYEKHKVYACEVTHQGLSSPVTKSFNRGEC | – | – | – | – | – | 5.83 nM | 4.86 nM | 5.91 nM | 0.79 nM | – | 0.77 nM |
